In PubChem BioAssay AID1645887 (National Center for Advancing Translational Sciences (NCATS), 2021):
Several values for one entry are separate records, joined by “and”; a condition that tells them apart may be missing. Equal values may be shown once. The campaign covered roughly 16,000 compounds. About 40 (0.2%) were called active. Another 1% or so got no clear call; they are omitted. Calls follow the shape of the dose curve; as a rule, active = well fitted activation curve with a large enough effect; inconclusive = small, poorly fitted or top-dose-only effect, or another doubt; inactive = no such curve, though single readings can be large or run the other way. This is one part of the list.

These molecules were tested against Rap guanine nucleotide exchange factor 4 (Homo sapiens) (UniProt Q8WZA2) (assay: Validation qHTS for agonist of cAMP-regulated guanine nucleotide exchange factor 4 (EPAC2)). Settings: EPAC2 Rap1B BODIPY-GDP exchange, fluorescence; activation: hits give high values.
UniProt Q8WZA2, sequence (Q8WZA2 whole entry, looked up): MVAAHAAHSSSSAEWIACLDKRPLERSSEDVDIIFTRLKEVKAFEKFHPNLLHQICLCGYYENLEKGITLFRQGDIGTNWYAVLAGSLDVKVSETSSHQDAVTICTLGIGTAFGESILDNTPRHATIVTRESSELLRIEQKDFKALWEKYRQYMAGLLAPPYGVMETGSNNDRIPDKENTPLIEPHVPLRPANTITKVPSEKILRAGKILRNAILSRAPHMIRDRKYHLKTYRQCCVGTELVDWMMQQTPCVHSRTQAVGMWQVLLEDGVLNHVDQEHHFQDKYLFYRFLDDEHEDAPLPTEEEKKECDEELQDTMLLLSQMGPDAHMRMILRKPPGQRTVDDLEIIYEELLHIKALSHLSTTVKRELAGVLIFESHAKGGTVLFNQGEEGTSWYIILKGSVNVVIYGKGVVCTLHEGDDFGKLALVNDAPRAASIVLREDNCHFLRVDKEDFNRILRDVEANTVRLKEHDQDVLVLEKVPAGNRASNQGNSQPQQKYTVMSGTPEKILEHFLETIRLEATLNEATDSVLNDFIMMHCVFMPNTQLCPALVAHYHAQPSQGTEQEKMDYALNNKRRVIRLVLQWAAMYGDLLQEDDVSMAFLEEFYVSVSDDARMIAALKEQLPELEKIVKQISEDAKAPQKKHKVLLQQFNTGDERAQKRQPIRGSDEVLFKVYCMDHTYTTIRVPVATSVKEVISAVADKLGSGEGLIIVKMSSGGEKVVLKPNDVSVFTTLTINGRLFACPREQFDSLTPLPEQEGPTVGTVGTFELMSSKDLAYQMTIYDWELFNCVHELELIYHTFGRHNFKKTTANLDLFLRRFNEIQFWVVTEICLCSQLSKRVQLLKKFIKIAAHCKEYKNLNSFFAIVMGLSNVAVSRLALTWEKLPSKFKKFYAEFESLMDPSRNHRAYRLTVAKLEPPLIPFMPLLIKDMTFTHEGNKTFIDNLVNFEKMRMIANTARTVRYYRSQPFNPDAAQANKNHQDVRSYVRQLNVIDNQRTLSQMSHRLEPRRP
Procedure, shortened: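 Signal normalized against 6.5 mM cAMP as agonist control. Mix of EPAC2 (100 nM), RAP1B-BODIPY-GDP (250 nM) and GDP (50 uM) was read kinetically at 480/540 nm, every 5 min over 30 min, after 5 min room-temperature incubation with compound.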
% is scaled to controls: 0 for no effect and ±100 for the full control effect.
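Also: exchange makes BODIPY-GDP fluorescence drop when released from Rap1B; series mostly up to about 150 µM.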

activation, inactive:
Cc1cccc(C)c1NC(=O)C(C)N (stereo unspecified) -18.1% and 5.87%, O=C(O)C1CCCNC1 (stereo unspecified) -17.2% and -13%, Cc1noc(C)c1C(=O)N1CCC[C@@]2(CCN(C(c3ccccc3)c3ccccc3)C2)C1 10%, CC(C(=O)O)c1ccc2c(c1)[nH]c1ccc(Cl)cc12 (stereo unspecified) 7.27%, O=C(c1cccc(Cn2cccn2)c1)N1CCC(n2c(C3CCCO3)nc3cc(C(F)(F)F)ccc32)CC1 (stereo unspecified) -4.31%, CC1CC[C@@]2(OC1)OC1CC3C4CC[C@@H]5CC(O)CC[C@@]5(C)C4CC[C@]3(C)C1C2C (stereo partly specified) 0.782%, CC(=O)N1CCC2(CC1)CCN(c1ccncc1)CC2 -12%, CC(=O)OC(C)(C)C1Cc2cc3ccc(=O)oc3cc2O1 (stereo unspecified) -7.61%, O=C(C[n+]1csc2ccccc21)c1ccccc1 -11.6%, CCCCc1cc2ccccc2c(OCCN(C)C)n1 -17.9%, C/C=C(/CC[C@@H](C)[C@H]1CC[C@H]2C3=CC[C@H]4[C@H](C)[C@@H](O)CC[C@]4(C)[C@H]3CC[C@]12C)C(C)C -14.3%, Cc1ccc2c(c1)CN(CCNC(=O)c1c(-c3ccccc3)noc1C)CC(C)O2 (stereo unspecified) -6.02%, CCc1nc2cc(C(=O)NCC3CCS(=O)(=O)C3)cc(NC(=O)c3ccccc3OC)c2n1C (stereo unspecified) -18.6%, CC(C)NC(=O)N1CCCC2(CCN(C(=O)c3cccn3C)CC2)C1 -3.58%, COc1ccc(OC)c2c(/C=C/c3c(C)[nH]c4ccccc34)ccnc12 -11.1%, NC(=S)NCCC[C@H](N)C(=O)O 4.05% and -27.2%, COc1cccc(-c2cc(NCc3cccnc3)ncn2)c1 -0.362%, CCNc1ncc2nc(C)c(=O)n(Cc3cccc(OC)c3)c2n1 -8.52%, C[C@H]1O[C@@H](O[C@H]2[C@@H](O)C[C@H](O[C@H]3[C@@H](O)C[C@H](O[C@H]4CC[C@@]5(C)[C@H](CC[C@@H]6[C@@H]5C[C@@H](O)[C@]5(C)[C@@H](C7=CC(=O)OC7)CC[C@]65O)C4)O[C@@H]3C)O[C@@H]2C)C[C@H](O)[C@@H]1O -28.2% and 8.52%, CN1CCN(C2=Nc3cc(F)ccc3Cc3ccccc32)CC1 -0.804% and -3.25%, O=P(O)(O)CP(=O)(O)O 10.9%, CSc1ccccc1N1CCN(CCCCCC(=O)NC2CCCc3ccccc32)CC1 (stereo unspecified) -26.5%, Cc1cnc(CNc2ncncc2-c2c(C)noc2C)cn1 4.58%, C/C=C(/C)C(=O)OC1Cc2c(ccc3ccc(=O)oc23)OC1(C)C (stereo unspecified) 5.45%, CC[C@@H]1/C=C(\C)C[C@H](C)C[C@H](OC)[C@H]2O[C@@](O)(C(=O)C(=O)N3CCCC[C@H]3C(=O)O[C@H](/C(C)=C/[C@@H]3CC[C@@H](Cl)[C@H](OC)C3)[C@H](C)[C@@H](O)CC1=O)[C@H](C)C[C@@H]2OC -6.81%, CN(C)c1nc(CN2CCCCC2c2cccnc2)nc2ccccc12 (stereo unspecified) -10%, COc1ccc(C(=O)N2CCC[C@@]3(CCN(Cc4ccccc4)C3)C2)cc1 -2.56%, O=C1[C@H](Cc2ccccc2)NC/C=C\C[C@H](c2ccc(Cl)cc2)N1Cc1ccc(Cl)cc1 -12.1%, C[C@@](N)(Cc1ccc(O)c(O)c1)C(=O)O -26.5%, NC(N)=NC(N)=Nc1cccc(Cl)c1 -38.6% and 6.36% and -2.61%, CC(C)CN1CCC(=O)N(CCSc2ccccc2)CC1 -18.7%, CO[C@@]1(NC(=O)Cc2cccs2)C(=O)N2C(C(=O)O)=C(COC(N)=O)CSC21 (stereo partly specified) 5.6%, Cc1noc(C)c1-c1cncnc1N1CCN(C)CC1 -16.9%, COc1cc(C(=O)N(Cc2cc3ccc(C)cc3nc2N(C)C)C2CC2)cc(OC)c1OC -16.7%, O=C(c1ccc(F)c(F)c1)N1CCOc2ccc(CN3CCN(CCO)CC3)cc2C1 -0.745%, NC(CCC(=O)NC(CCSC(CC(=O)O)C(=O)O)C(=O)NCC(=O)O)C(=O)O (stereo unspecified) -6.13%, COc1ccc2c(c1OC)C(=O)O[C@H]2C1c2c(cc3c(c2OC)OCO3)CCN1C (stereo partly specified) -9.37% and -6.05%, O=c1c(O)c(-c2ccc(O)cc2)oc2cc(O)ccc12 -3.94%, C[C@H](CCC(=O)O)[C@H]1CC[C@H]2[C@@H]3[C@H](O)C[C@@H]4C[C@H](O)CC[C@]4(C)[C@H]3C[C@H](O)[C@]12C -39.2%, O=c1c(O)c(-c2cccc(O)c2)oc2ccccc12 -5.15%, O=c1ccc2cc(O)c(O)cc2o1 7.55%, COc1ccc(CCN(C)CCCN2CCc3cc(OC)c(OC)cc3CC2=O)cc1OC -0.129%, Cc1noc(C)c1-c1cc(N2CCNCC2)ncn1 -9.61%, c1csc(CNc2nc(CN3CCCC(c4nc5ccccc5o4)C3)nc3ccccc23)c1 (stereo unspecified) 1.82%, NC(=O)c1ccc[n+]([C@@H]2OC(COP(=O)([O-])OP(=O)(O)OCC3OC(n4cnc5c(N)ncnc54)C(OP(=O)(O)O)C3O)C(O)C2O)c1 (stereo partly specified) 3.09%, COc1ccc(C2(C#N)CCC(C(=O)O)CC2)cc1OC1CCCC1 (stereo unspecified) -2.45%, COc1cccc(-c2nc(N(C)Cc3ccco3)c3ccccc3n2)c1 10.5%, Cc1noc(C)c1-c1nc(Nc2ccccc2)c2ccccc2n1 -6.81%, Cc1c(C(=O)NCC2COCCO2)cnn1-c1ncc2c(n1)-c1ccccc1CC2 (stereo unspecified) -13.1%, CC(=O)C[C@H]1c2cc(C(F)(F)F)ccc2S(=O)(=O)N1Cc1ccccc1 -6.75%, O=C(NCc1cccnc1)[C@@H]1CC=C[C@@H]2CCN(Cc3ccc(Cl)c(Cl)c3)C(=O)[C@@H]21 -7.57%, COc1cc(N)c(Cl)cc1C(=O)OCCCN1CCCCC1 -21.2%, CCCC1OC2CC3C4CCC5=CC(=O)C=CC5(C)C4C(O)CC3(C)[C@]2(C(=O)CO)O1 (stereo partly specified) 5.25%, CCNc1ncc2nc(-c3cc(F)cc(F)c3)c(=O)n(C[C@H]3CCCO3)c2n1 -9.2%, COc1ccccc1CNc1ccnc(-c2ccccc2OC)n1 -9.46%, N=C(N)c1ccc(OCCCOc2ccc(C(=N)N)cc2Br)c(Br)c1 -22.4%, O=c1c(-c2ccc(F)cc2)nc2cnc(Oc3ccccc3)nc2n1Cc1cccs1 -23.4%, CC(C(=O)O)c1ccc(-c2ccccc2)c(F)c1 (stereo unspecified) -13% and 7.96%, C=C1C(C2(C)C=CC(=O)C(C)(C)C2CC(=O)OC)CC[C@@]2(C)C(c3ccoc3)OC(=O)C3OC132 (stereo partly specified) 8.54%, CN(C)CC(C)(O)c1ccc2c(c1)CN(C(=O)c1ccc(-n3cccn3)cc1)CCO2 (stereo unspecified) 0.141%, O=C(c1cnccn1)N1CCC2(CC1)CCN(c1ccccn1)CC2 -12%, COC(=O)C1CCN(Cc2ccc3c(c2)CN(C(=O)c2cc(C)nc(C)n2)CCO3)CC1 1.9%, COc1cc2c(N3CCN(C(=O)Nc4ccc(OC(C)C)cc4)CC3)ncnc2cc1OCCCN1CCCCC1 3.09%, CCCN1CCC(=O)N(CCSc2ccccc2)CC1 -16.5%, NC(=O)c1cn(Cc2c(F)cccc2F)nn1 -2.45% and -41.7%, Cc1ccnc2c(N)cccc12 -19.9%, O=S1(=O)CCO[C@H]2Cc3ccccc3[C@H]2N1Cc1ccc(F)cc1 -28.9%, Cc1cc(O)c2c(c1)C(=O)c1cccc(O)c1C2=O -16.6% and -5.99%, CC(=O)O[C@@]1(C(C)=O)CCC2C3C=C(Cl)C4=CC(=O)CC[C@]4(C)C3CC[C@]21C (stereo partly specified) -7.95%, CC(=O)c1ccc(F)c(-c2cc(C)cc3c2OC(CNC(=O)c2csc(C)n2)C3)c1 (stereo unspecified) -20%, O=S(=O)(c1ccccc1)N1CCC2(CCCN(c3ccncc3)C2)CC1 1.82%, c1ccc2[nH]ccc2c1 0.55%, Cc1ccc2nc(-c3ccccc3C)c(CN(CC3CCCO3)C(=O)c3cccs3)cc2c1 (stereo unspecified) -19.1%, O=C(N[C@@H]1CCC(=O)N(CC[C@H](Sc2ccc(Br)cc2)c2ccccc2)CC1)OCc1ccccc1 -6.81%, O=C(OCC(O)CO)c1ccccc1Nc1ccnc2cc(Cl)ccc12 (stereo unspecified) -37.1% and -1.78%, CC(=O)Oc1cc2c(c(C)c1OC(C)=O)CC=C1[C@]3(C)CC[C@]4(C)CC[C@@](C)(C(=O)O)CC4[C@]3(C)CC[C@]12C (stereo partly specified) -18.6%, COc1ccccc1CNc1nc(-c2ccoc2)nc2ccccc12 3.68%, C#Cc1cccc(Nc2ncnc3cc(OCCOC)c(OCCOC)cc23)c1 -17.6%, C[C@H](CCCC(C)(C)O)[C@H]1CC[C@H]2[C@@H]3CC=C4C[C@@H](O)CC[C@]4(C)[C@H]3CC[C@]12C -12.8%, CC(=O)N1CCC2(CCCN(Cc3ccc(C#N)cc3)C2)CC1 -9.87%, O=C1[C@H]2[C@H](C=CC[C@H]2C(=O)N2CCN(c3ccccc3)CC2)CCN1Cc1ccccc1 -5.5%
